Measured values: PubChem BioAssay AID504332 (National Center for Advancing Translational Sciences (NCATS), 2011)
Hit rate of the full screen: of about 350,000 compounds, about 31,000 (8.9%) were called active. Inconclusive results, whose numbers are uncertain, are shown with a selection of clear calls. Calls follow the shape of the dose curve; as a rule, active = well fitted inhibition curve with a large enough effect; inconclusive = small, poorly fitted or top-dose-only effect; inactive = no such curve, though single readings can be large or run the other way. A potency beside an inconclusive call is a rough fit, not a confirmed value.
% is scaled to controls: 0 for no effect and ±100 for the full control effect; potency is read from the fitted curve at half-maximal effect; tags tell the direction and shape of the fitted curve.
Also: nearly all actives have a fitted effect of over 75% in size.

Each compound was assayed against Histone-lysine N-methyltransferase EHMT2 (Homo sapiens) (UniProt Q96KQ7) (assay: qHTS Assay for Inhibitors of Histone Lysine Methyltransferase G9a). Settings: G9a H3K9 monomethylation, AlphaScreen, 2 h; activity, negative = inhibition: at 59 µM (top of the series) unless noted.
Sequence of UniProt Q96KQ7 (Q96KQ7 whole entry, looked up): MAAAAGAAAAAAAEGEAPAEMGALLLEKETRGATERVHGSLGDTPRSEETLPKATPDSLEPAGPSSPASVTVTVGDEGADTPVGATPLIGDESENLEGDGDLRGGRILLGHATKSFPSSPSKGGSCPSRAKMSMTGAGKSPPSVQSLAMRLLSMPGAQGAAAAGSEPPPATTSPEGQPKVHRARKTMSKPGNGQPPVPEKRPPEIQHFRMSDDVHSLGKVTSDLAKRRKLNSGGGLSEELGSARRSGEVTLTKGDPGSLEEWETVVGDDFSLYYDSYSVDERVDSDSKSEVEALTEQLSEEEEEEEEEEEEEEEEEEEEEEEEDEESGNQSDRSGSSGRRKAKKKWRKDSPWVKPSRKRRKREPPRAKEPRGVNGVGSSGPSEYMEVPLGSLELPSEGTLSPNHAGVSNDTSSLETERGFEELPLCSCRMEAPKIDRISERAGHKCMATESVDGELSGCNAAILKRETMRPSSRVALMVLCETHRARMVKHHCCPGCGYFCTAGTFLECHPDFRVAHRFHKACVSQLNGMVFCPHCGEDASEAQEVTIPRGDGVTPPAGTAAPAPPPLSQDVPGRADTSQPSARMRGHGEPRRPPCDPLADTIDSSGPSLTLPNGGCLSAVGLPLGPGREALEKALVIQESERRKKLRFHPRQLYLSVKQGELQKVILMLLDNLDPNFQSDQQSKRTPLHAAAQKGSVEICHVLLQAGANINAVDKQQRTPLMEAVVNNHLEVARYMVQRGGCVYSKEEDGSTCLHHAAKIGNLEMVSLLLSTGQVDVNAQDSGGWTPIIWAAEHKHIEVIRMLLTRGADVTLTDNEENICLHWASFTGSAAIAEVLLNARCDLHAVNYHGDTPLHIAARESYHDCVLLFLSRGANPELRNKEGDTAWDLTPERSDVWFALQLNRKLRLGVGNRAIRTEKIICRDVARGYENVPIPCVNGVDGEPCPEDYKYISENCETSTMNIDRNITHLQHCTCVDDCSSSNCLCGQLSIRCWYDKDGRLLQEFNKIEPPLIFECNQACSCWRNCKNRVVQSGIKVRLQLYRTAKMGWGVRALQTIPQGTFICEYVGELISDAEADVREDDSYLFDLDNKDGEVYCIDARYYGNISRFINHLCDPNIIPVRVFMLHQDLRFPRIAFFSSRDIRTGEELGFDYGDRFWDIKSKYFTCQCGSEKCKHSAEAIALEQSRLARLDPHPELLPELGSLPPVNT
Method in brief: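 Quantitative HTS format: methyltransferase activity on a biotin-tagged H3K9 peptide is measured by AlphaScreen, using a rabbit anti-monomethyl-H3K9 antibody with streptavidin donor and anti-IgG acceptor beads. Final levels are 20 nM enzyme, 500 nM peptide, 20 uM SAM; 2 h RT.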
`O=C(c1ccco1)N1CCN(c2nc(C3CC3)nc3c2nnn3Cc2ccccc2Cl)CC1` was tested, and the Potency was inconclusive: 39.8 µM [inhibitor, single point].
With `Clc1cccc(Cl)c1CNC1CCCC1` the Potency was inconclusive: 2.82 µM [inhibitor, full curve, poor fit].
For `CC(C)c1ccc(NC(=S)NNC(=O)c2cccs2)cc1`, the activity, negative = inhibition was inconclusive: -57.1% [inhibitor].
With `CC(=O)c1c(O)cc(C)n(-c2ccc(F)cc2)c1=O` the activity, negative = inhibition was inconclusive: -66.4% [inhibitor].
`COc1ccccc1NC(=O)C(C)OC(=O)CCCc1c[nH]c2ccccc12` (stereo not given) was tested, and the Potency was inconclusive: 70.8 µM [inhibitor, single point].
For `CCc1ccc(NC(=O)CSc2n[nH]c(C)c2[N+](=O)[O-])cc1`, the Potency was “inactive”.
`COc1ccc2nc(SCC(=O)O)nc(C)c2c1` was tested, and the Potency was inconclusive: 1 µM [inhibitor, single point].
In the case of `Cc1nc2scc(-c3cccs3)c2c(=O)[nH]1`, the Potency is reported as inconclusive: 2.82 µM [inhibitor, partial curve, poor fit].
`COc1ccc(C2=CC(c3ccc(N(C)C)cc3)n3nnnc3N2)cc1` (stereo not given) was tested, and the Potency was inconclusive: 3.55 µM [inhibitor, full curve].
In the case of `C#CCN(C#N)c1nc(NCC)nc(NC(C)C)n1`, the activity, negative = inhibition is reported as inactive: 0.389% [at 12.7 µM].
For `C[C@H](NC(=O)C1CCN(S(=O)(=O)c2ccccc2)CC1)C(=O)NCc1ccc(Cl)cc1Cl`, the Potency was “inactive”.
With `COc1ccc(N2CCN(C3=CC(=O)N(c4cccc(Cl)c4)C3=O)CC2)cc1` the activity, negative = inhibition was inconclusive: -61.6% [inhibitor] [at 12.7 µM].
`COc1ccc(N2CCN(CCNC(=O)c3ccc4c(c3)[nH]c(=S)n3c5ccccc5nc43)CC2)cc1` was tested, and the Potency was active: 50.1 µM.
For `O=S(=O)(Nc1nc2ccccc2nc1Nc1ccc2c(c1)OCO2)c1ccc(F)cc1`, the Potency was inconclusive: 79.4 µM [inhibitor, single point].
With `Cc1cc(C)nc(NNC2=CC(=[N+]3CCCCC3)CC(C)(C)C2)n1` the Potency was inconclusive: 35.5 µM [inhibitor, partial curve].
In the case of `CC1CCCN(CCCN2C(=O)C3C(C(=O)Nc4cccc(Cl)c4)C4C=CC3(O4)C2C(=O)NC2CCCCC2)C1` (stereo not given), the Potency is reported as inconclusive: 70.8 µM [inhibitor, single point].
In the case of `CC1=C(C(=O)N2CCOCC2)C(c2ccccc2F)NC(=O)N1` (stereo not given), the Potency is reported as “inactive”.
In the case of `CCOC(=O)/C(C#N)=C/c1cn(CCC(=O)O)nc1-c1ccc(Br)cc1`, the Potency is reported as inconclusive: 56.2 µM [inhibitor, partial curve, poor fit].
For `O=C(CSc1ccc([N+](=O)[O-])cc1)Nc1cccc(S(=O)(=O)Nc2ccccc2F)c1`, the Potency was inconclusive: 3.16 µM [inhibitor, partial curve, poor fit].
In the case of `COc1ccc(-c2cc(=O)c3ccccc3o2)cc1`, the activity, negative = inhibition is reported as inactive: 19.4% [at 12.7 µM].
With `Nn1c(-c2ccccc2)cc(-c2ccccc2)cc1=O` the activity, negative = inhibition was inactive: 61.2% [at 2.33 µM].
`Cc1ccccc1C1C2=C(Nc3[nH]n(-c4ccccc4)c(=O)c31)c1ccccc1C2=O` (stereo not given) was tested, and the Potency was active: 7.94 µM.
With `NC(=O)CC[C@@H]1NC(=O)C(Cc2ccc(O)cc2)NC(=O)c2cc([N+](=O)[O-])cc(F)c2NCCC[C@@H](C(N)=O)NC1=O` (stereo not given in full) the Potency was active: 50.1 µM.
With `COc1ccc(OC)c(N2Cc3ccccc3C2)c1` the Potency was active: 7.94 µM.
For `O=C(CSc1nccn1-c1ccc(Cl)cc1)N1CCCc2ccccc21`, the Potency was active: 50.1 µM.
For `Cc1cccc(CS(=O)(=O)CC2Nc3ccc(C(=O)NCc4ccccc4)cc3NC2=O)c1` (stereo not given), the Potency was inconclusive: 25.1 µM [inhibitor, single point].
In the case of `Nc1nc(N)n(-c2ccccc2)c(=Nc2ccccc2)n1`, the Potency is reported as “inactive”.
With `c1c2c(cc3sc(N4CCCCC4)nc13)OCCO2` the Potency was inconclusive: 89.1 µM [inhibitor, single point].
For `Cc1cc(C)nc(N/N=C/C2=C(N3CCOCC3)C(=C\c3ccc(Cl)cc3)/CC2)n1`, the Potency was inconclusive: 28.2 µM [inhibitor, single point].
With `COC(=O)c1ccc(NC(=S)NC2CC(C)(C)NC(C)(C)C2)cc1` the Potency was inconclusive: 10 µM [inhibitor, partial curve, poor fit].
With `COc1ccc(N2CCN(C(=O)Cn3cnc4sc(C)c(S(=O)(=O)N5CCC(C)CC5)c4c3=O)CC2)cc1` the Potency was inconclusive: 20 µM [inhibitor, single point].
With `CCOc1ccc(S(=O)(=O)N2Cc3ccccc3CC2C(=O)O)cc1` (stereo not given) the Potency was active: 50.1 µM.
In the case of `O=C(CCC1CCCCC1)Nc1ccc(S(=O)(=O)Nc2nccs2)cc1`, the Potency is reported as inconclusive: 79.4 µM [inhibitor, single point].
`Cc1ccccc1Nc1nc(-c2sc(NC(=O)c3cccc(Cl)c3)nc2C)cs1` was tested, and the Potency was active: 22.4 µM.
For `CC(C)OC(=O)CSc1nnc(CNc2nc(-c3ccccc3)cs2)n1C`, the Potency was active: 44.7 µM.
For `CCNC(=O)CSc1nc2ccccc2c(=O)n1OC`, the Potency was active: 79.4 µM.
For `CCn1cc(C(=O)NC(=S)Nc2ccccc2Br)cn1`, the Potency was inconclusive: 89.1 µM [inhibitor, single point].
For `CC(=O)N1c2c(cc(Br)cc2S(=O)(=O)N2CCN(c3cc(C)ccc3C)CC2)CC1C` (stereo not given), the Potency was inconclusive: 25.1 µM [inhibitor, partial curve, poor fit].
For `CCOc1ccc(S(=O)(=O)N2CCN(Cc3ccc4c(c3)OCO4)CC2)cc1C`, the Potency was “inactive”.
For `N#Cc1c(/N=C/c2ccco2)sc2c1CCC2`, the activity, negative = inhibition was inconclusive: -72.8% [inhibitor].
In the case of `COc1ccc(CC(=O)Oc2ccc(C)cc2Br)cc1OC`, the Potency is reported as “inactive”.
In the case of `CCN(c1ccccc1)S(=O)(=O)c1ccc(OC)c(NC(=O)CNCC(C)O)c1` (stereo not given), the Potency is reported as inconclusive: 15.8 µM [inhibitor, partial curve, poor fit].
With `O=C(OCC(=O)c1ccc(Cl)s1)c1ccc2ccccc2n1` the Potency was inconclusive: 28.2 µM [inhibitor, single point].
`CC1CCC2(CC1)NC(=O)N(CC(=O)Nc1ccc(N3CCOCC3)cc1)C2=O` (stereo not given) was tested, and the Potency was inconclusive: 79.4 µM [inhibitor, single point].
For `CC(C)n1c(N2CCN(CC(=O)NCc3cccs3)CC2)nc2ccccc21`, the Potency was inconclusive: 3.55 µM [inhibitor, partial curve, poor fit].
With `COc1ccc(N2CCN(CCNS(=O)(=O)c3cccc4nsnc34)CC2)cc1` the activity, negative = inhibition was inconclusive: -88.8% [inhibitor].
`CN1CCN(NC(=O)CN2C(=O)/C(=C/c3c(Cl)cccc3Cl)SC2=S)CC1` was tested, and the Potency was active: 56.2 µM.
For `O=C(O)C1Oc2cc3ccccc3cc2O1`, the Potency was active: 44.7 µM.
For `O=C(c1cc(S(=O)(=O)N2CCOCC2)ccc1Cl)N1CCOCC1`, the Potency was “inactive”.
With `CC1=NNC(=O)/C1=C\c1cn(-c2ccccc2)nc1-c1ccc(F)cc1` the Potency was active: 10 µM.
`O=C(Cc1ccccc1Cl)Nc1cc(S(=O)(=O)N2CCOCC2)ccc1N1CCOCC1` was tested, and the Potency was active: 3.55 µM.
`CN(C)c1ccc(C(=O)c2ccc(N(C)C)c3ccccc23)cc1` was tested, and the Potency was inconclusive: 25.1 µM [inhibitor, single point].
In the case of `C/C=C/C(=O)Nc1cccc(C2=NOC3(C2)C[C@@H](C(N)=O)N(C(=O)c2cc([N+](=O)[O-])cc([N+](=O)[O-])c2)C3)c1` (stereo not given in full), the activity, negative = inhibition is reported as inactive: -6.99% [at 12.7 µM].
With `CC[N+](CC)(CC)C/C=C/CN1CCCCC1` the Potency was inconclusive: 14.1 µM [inhibitor, single point].
With `N#CCCN/N=C(/Cc1nc2ccccc2[nH]1)c1cccc(Cl)c1` the Potency was inconclusive: 39.8 µM [inhibitor, partial curve, poor fit].
For `N#Cc1c(-c2ccco2)c2c([nH]c1=S)CCCC2`, the activity, negative = inhibition was inconclusive: -135% [inhibitor] [at 12.7 µM].
For `COc1ccc(OC)c(NC(=O)C2=C(C)C(=O)OC23CCCCCC3)c1`, the Potency was “inactive”.
With `CCC(=O)Nc1ccc(NCc2ccc(-c3ccccc3)cc2)cc1` the Potency was active: 25.1 µM.
`CN(C)/C=N/N(C)c1ncccc1[N+](=O)[O-]` was tested, and the Potency was inconclusive: 50.1 µM [inhibitor, partial curve, poor fit].
`CCc1ccc(NC(=O)c2sc3nc(C)c(Cl)c(C)c3c2NC(=O)c2ccccc2OC)cc1` was tested, and the Potency was inconclusive: 0.004 µM [inhibitor, partial curve, poor fit].
In the case of `N#C/C(=C/c1ccc(-c2ccc(S(N)(=O)=O)cc2)o1)c1nc2ccccc2s1`, the Potency is reported as “inactive”.
In the case of `CN(CC1CCOCC1)C(=O)CC1C(=O)NCCN1CC(c1ccccc1)c1ccccc1` (stereo not given), the Potency is reported as active: 89.1 µM.
For `COCc1nnc(NS(=O)(=O)c2ccc(NC(C)=O)cc2)s1`, the Potency was inconclusive: 39.8 µM [inhibitor, partial curve, poor fit].
For `Cc1c(C(=O)NC(=S)N(Cc2ccccc2)c2ccccn2)cccc1[N+](=O)[O-]`, the Potency was inconclusive: 5.62 µM [inhibitor, partial curve, poor fit].
With `C/C(=N\Nc1ccc(S(=O)(=O)Nc2ccc(Cl)cc2)cc1[N+](=O)[O-])c1ccc(N2CCOCC2)cc1` the Potency was active: 8.91 µM.
In the case of `CCOc1ccccc1-n1c(=S)sc2c(=O)n(-c3ccc(C)cc3)c(=S)[nH]c21`, the Potency is reported as active: 10 µM.
In the case of `COC(=O)CC1=NN(c2nc(C)cc(C)n2)C(=O)C1`, the Potency is reported as inconclusive: 31.6 µM [inhibitor, single point].
In the case of `CC(/C=N/NC(=O)CSc1n[nH]c(=O)[nH]c1=O)=C\c1ccccc1`, the Potency is reported as “inactive”.
For `CCOCCc1nn2c(=O)cc(COC(=O)CNC(=O)c3cccc(C)c3)nc2s1`, the Potency was “inactive”.
In the case of `Cc1ccc(-c2cc(C(=O)NCc3ccco3)c3ccccc3n2)o1`, the Potency is reported as inconclusive: 2.82 µM [inhibitor, partial curve, poor fit].
